Test results reported in article PMC10801813, “In silico protein interaction screening uncovers DONSON’s role in replication initiation” (Science (New York, N.Y.), 2023).
Changes are numbered by the printed parent chain. Results are given in words; binding and its absence hold for the method and conditions named. In cells and extracts the contact can be indirect. Some entries that bind do so weakly or less than the wild type. Tags and fused reporters may be left off the sequences shown.

B1: Endogenous GINS of Xenopus nucleoplasmic egg extract (complex, UniProt Q7ZT47 1-196; Q7ZT46 1-185; Q7ZT01 1-210; Q7ZT48 1-221)
chain 1: MFCEKAIELIRELQRASDGQLPAFNEDGIRQILEEMKALYEQNQADVNEAKTEGRSDLIPTIKFRHCCLLRNRRCIVAYLYDRLLRIRALRWEYGSVLPSALRFHMSTEEMDWFNQYKRSLATYMRSLGGEEGLDITQDMKPPKSLYIEVRCLRDYGEFEIDDGTTILLKKNSQHFLPRWKCEQLIRQGVLEHVLS
chain 2: MDASEVEFLAEKEQVTVIPNFSLDKVYLIGGDLGPFNPSLPVEVPLWLAINLKQRQKCRIVPPEWMDVEKLEAIRDQERREETFTPMPSPYYMELTKLLLNHAADNIPKADEIRTLVKDTWDTRIAKLRLSADSFVKGQEAHAKLDNLTLMEINTIGTFFTESLNHMYKLRTSLQNPEEGQSQDY
chain 3: MWEPYMPVEPGLGREENFLSLEDLLMSQEKLPCCIESGFPRLGFLDKGGDSDSIPEGSKMELPLWLAKGLYDNKRRVLSVELPKIYREGWRTVFSADANVVDLHKMGPHYYGFGSQLLNFDSPENPEIAKTILQTFVGRFRRIMDSSQNAYNEDTSGLVARLDELERSLFRAGQRGLNAFQSWERGKAAQITASNLVQNYKKRKFNEADA
chain 4: MEDELALSDQGSDEDEEVLTPAELINKLEEAWLNEKFAPELLESKSEVVECVMEQLNHMEQNLHRAKPGDLKISFHHMEIERIRYMLSSYLRSRMLKIEKFFPHILEKEKSRGEGEPPHLSPEEFAFAKEYMTNTETLLKSVALRHMPPNLQTVDLLKSVPKPNLDSFVFLRVKEEQNNILVEPETDEQSEYAIDMEVGSQHLIRYRTIAPLVASGAVKLI
B2: Endogenous MCM3 of Xenopus nucleoplasmic egg extract, P49739 1-807 (protein)
chain: MDYGGGFEDHELREAQREYLDFLDDDQDQGLYHGKVRDMIGSNEHRLIVNLNDVRRKNDKRANLMLNDAFAETIAFQRALKDLVASIDATYAKQFEEFSVGFEGSFGSKHVSPRTLTASLLGSLVCVEGIVTKCSLVRPKVMRSVHYCPATKKTLERKYSDLTSLEAFPSSSIYPTKDEENNPLETEYGLSTYKDHQTLSIQEMPEKAPAGQLPRSVDIIADDDLVDKCKPGDRVQIVGIYRCLPSKQGGFTSGTFRTILLANNIKLMSKEIAPTFSADDVAKIKKFCKAHSKDIFEHLSKSLAPSIHGHEYIKKAILCMLLGGNEKVLENGTRIRGDINVLLIGDPSVAKSQLLRYVLHTAPRAIPTTGRGSSGVGLTAAVTTDQETGERRLEAGAMVLADRGVVCIDEFDKMSDMDRTAIHEVMEQGRVTIAKAGIQARLNARCSVLAAANPVYGRYDQYRTPMENIGLQDSLLSRFDLLFIVLDKMDADNDQEIADHVLRMHRYRTPGEQDGYALPLGCSVEIFATDDPNASDVTDQELQIYEKHDNLLHGPRKNKSKIVSMQFIRKYIHVAKLIKPVLTSEAADYISQEYAKIRNHDQINNDSARTMPVTARALETMIRLSTAHAKVRMSKTIERQDAETALELVQFAYFKKVLAKEKKKTDKDLHDENLSQDTLSQESVRKSSRRAGKIADSQDDSMDPYSFSEQDSSLNENLSQSLRPQRKKAESQDGKRSLSQNRTKEFKAALLKAFKSSRSQSVAVSQLLELINKGNPEPFERSEVKEALDNMQNDNQVMVSEDVVFLI

Key:
[1] = target: T1, FLAG-DONSON DEWE→RRAR, expressed in wheat germ extract (Xenopus laevis) (UniProt Q5U4U4); test: co-IP; FLAG-DONSON proteins expressed in wheat germ extract pre-immobilised on anti-FLAG M2 magnetic beads, incubated with 30% NPE 1 h 4°C, eluted with 3× FLAG peptide, immunoblot (Fig. 4D, figs. S12 and S14)
T1 sequence: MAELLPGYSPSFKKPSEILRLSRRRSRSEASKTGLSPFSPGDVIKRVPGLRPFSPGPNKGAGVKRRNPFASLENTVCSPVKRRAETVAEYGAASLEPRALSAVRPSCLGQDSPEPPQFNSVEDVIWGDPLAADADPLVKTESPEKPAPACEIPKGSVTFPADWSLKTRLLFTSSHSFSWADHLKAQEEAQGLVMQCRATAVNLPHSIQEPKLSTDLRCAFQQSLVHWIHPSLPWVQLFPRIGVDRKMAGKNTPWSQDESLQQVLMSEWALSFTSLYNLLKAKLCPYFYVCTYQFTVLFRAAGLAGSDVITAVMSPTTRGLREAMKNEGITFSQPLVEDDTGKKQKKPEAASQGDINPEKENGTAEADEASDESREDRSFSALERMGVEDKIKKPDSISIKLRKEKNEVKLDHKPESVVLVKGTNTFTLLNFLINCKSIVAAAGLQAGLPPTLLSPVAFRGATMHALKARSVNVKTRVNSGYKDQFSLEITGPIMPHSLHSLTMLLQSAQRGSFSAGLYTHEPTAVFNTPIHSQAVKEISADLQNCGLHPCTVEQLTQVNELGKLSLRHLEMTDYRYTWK

[2] = target: T2, Recombinant FLAG-tagged DONSON N430A (Xenopus laevis) (UniProt Q5U4U4); test: co-IP; 1 μM purified recombinant FLAG-DONSON added to 30% non-replicating NPE (in IP wash buffer: 10 mM HEPES-KOH pH 7.7, 50 mM KCl, 2.5 mM MgCl2, 250 mM sucrose, 0.1 mg/mL BSA, 0.02% Tween 20), anti-FLAG M2 magnetic beads, 1 h 4°C, eluted with 3× FLAG peptide, immunoblot; in Fig. 3E NPE treated with buffer, p27^Kip (CDKi) or λ phosphatase; only the target purified
T2 sequence: T1 sequence with R374D, R377E, A381W, R384E, N430A

[3] = target: T3, Recombinant FLAG-tagged DONSON Y8A (Xenopus laevis) (UniProt Q5U4U4); test: as above
T3 sequence: T1 sequence with Y8A, R374D, R377E, A381W, R384E

[4] = target: T4, Recombinant FLAG-tagged DONSON, wild type (Xenopus laevis) (UniProt Q5U4U4); test: as above
T4 sequence: T1 sequence with R374D, R377E, A381W, R384E

[5] = target: T5, FLAG-DONSON, wild type, expressed in wheat germ extract (Xenopus laevis), Q5U4U4; test: co-IP; FLAG-DONSON proteins expressed in wheat germ extract pre-immobilised on anti-FLAG M2 magnetic beads, incubated with 30% NPE 1 h 4°C, eluted with 3× FLAG peptide, immunoblot (Fig. 4D, figs. S12 and S14); conditions: remark: other sources report otherwise
T5 chain: T1 sequence with R374D, R377E, A381W, R384E

[6] = target: T6, Recombinant FLAG-tagged DONSON, wild type (Xenopus laevis), Q5U4U4; test: co-IP; 1 μM purified recombinant FLAG-DONSON added to 30% non-replicating NPE (in IP wash buffer: 10 mM HEPES-KOH pH 7.7, 50 mM KCl, 2.5 mM MgCl2, 250 mM sucrose, 0.1 mg/mL BSA, 0.02% Tween 20), anti-FLAG M2 magnetic beads, 1 h 4°C, eluted with 3× FLAG peptide, immunoblot; in Fig. 3E NPE treated with buffer, p27^Kip (CDKi) or λ phosphatase; only the target purified; conditions: remark: other sources report otherwise
T6 chain: T1 sequence with R374D, R377E, A381W, R384E

| Binder | binding [1] | binding [2] | binding [3] | binding [4] | binding [5] | binding [6] |
| --- | --- | --- | --- | --- | --- | --- |
| B1 | binds | binds | no binding (tested: 1 μM FLAG-DONSON in 30% NPE) | binds | – | – |
| B2 | – | – | – | – | no binding | no binding (tested: 1 μM FLAG-DONSON in 30% NPE) |
